# Results as given in paper PMC4336329 (PLoS ONE, 2015).
# Screen size: about 310,000 compounds; about 2,200 (0.71%) showed an effect of 50% or more. The effect is printed as a negative number. Some of the results follow.
# Molecular target: human ether-à-go-go-related gene (hERG) potassium channel (human, UniProt Q12809)
# Assay: primary screen, population patch clamp on CHO cells stably expressing hERG
# Chain of human ether-à-go-go-related gene (hERG) potassium channel (Q12809 whole entry, looked up): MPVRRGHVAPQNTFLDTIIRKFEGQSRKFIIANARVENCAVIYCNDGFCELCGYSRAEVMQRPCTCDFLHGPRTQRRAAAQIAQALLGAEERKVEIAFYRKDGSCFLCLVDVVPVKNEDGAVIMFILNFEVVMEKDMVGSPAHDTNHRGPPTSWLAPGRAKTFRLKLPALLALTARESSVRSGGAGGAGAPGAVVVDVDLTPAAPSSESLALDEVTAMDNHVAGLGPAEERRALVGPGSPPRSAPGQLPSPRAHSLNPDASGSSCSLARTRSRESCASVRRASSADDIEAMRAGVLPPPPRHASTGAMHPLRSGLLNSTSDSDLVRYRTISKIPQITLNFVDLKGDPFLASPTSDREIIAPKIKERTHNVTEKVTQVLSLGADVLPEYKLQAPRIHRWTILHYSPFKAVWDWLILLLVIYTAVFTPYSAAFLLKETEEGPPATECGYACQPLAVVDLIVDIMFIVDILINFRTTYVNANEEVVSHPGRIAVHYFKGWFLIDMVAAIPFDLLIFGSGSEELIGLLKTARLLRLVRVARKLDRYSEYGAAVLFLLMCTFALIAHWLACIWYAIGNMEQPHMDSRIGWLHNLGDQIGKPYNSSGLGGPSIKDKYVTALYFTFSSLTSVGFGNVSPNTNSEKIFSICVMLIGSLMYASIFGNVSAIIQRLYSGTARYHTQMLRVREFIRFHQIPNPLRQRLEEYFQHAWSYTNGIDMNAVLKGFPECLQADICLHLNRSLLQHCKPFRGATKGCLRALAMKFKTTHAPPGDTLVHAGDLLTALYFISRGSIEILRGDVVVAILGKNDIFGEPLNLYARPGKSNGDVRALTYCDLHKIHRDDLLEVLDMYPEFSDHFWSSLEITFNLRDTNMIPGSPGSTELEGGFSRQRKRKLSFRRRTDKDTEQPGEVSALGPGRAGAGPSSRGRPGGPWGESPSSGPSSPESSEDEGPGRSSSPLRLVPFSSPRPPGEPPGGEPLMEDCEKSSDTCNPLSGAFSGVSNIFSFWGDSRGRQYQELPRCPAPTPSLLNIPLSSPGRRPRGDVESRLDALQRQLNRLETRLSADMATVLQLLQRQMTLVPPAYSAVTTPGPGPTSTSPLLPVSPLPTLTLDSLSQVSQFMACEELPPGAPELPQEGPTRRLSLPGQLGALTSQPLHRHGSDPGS
row,SMILES,"hERG current change (%, negative = inhibition) at 1uM [%]"
1,NC(=O)C1(N2CCCCC2)CCN(C2CC(=O)N(Cc3ccc(N4CCCC4=O)cc3)C2=O)CC1 (centres unmarked),10.4
2,CC(CC(=O)OCC(=O)NCc1ccc(Cl)cc1)c1ccccc1 (centres unmarked),8.68
3,CCOC(=O)c1cnc(SC)nc1Oc1cccc(NC(=O)c2ccc(Cl)cc2)c1,-0.0105
4,O=C(CCNS(=O)(=O)c1ccccc1)OCc1nnc(-c2ccccc2)o1,14
5,Cc1cc(C(=O)CN2C(=O)NC3(CCCC3)C2=O)c(C)n1-c1ccc2c(c1)OCO2,-5
6,O=C(NCCNC(=O)c1ccco1)c1ccco1,12
7,O=C(CN1C(=O)S/C(=C\c2ccccc2F)C1=O)NC1CCS(=O)(=O)C1 (centres unmarked),16.8
8,CC(C)CC(NC(=O)OC(C)(C)C)C(=O)NCc1ccccc1 (centres unmarked),16.4
9,Cc1ccc(C(=O)CSc2ccc(-c3ccccc3)nn2)cc1,11.8
10,Cc1ccc(C)c(-n2c(CNC(=O)c3ccco3)nnc2SCC(=O)Nc2nccs2)c1,12.4
11,O=S1(=O)CCC(NC(=S)Nc2ccccc2)C1 (centres unmarked),14.8
12,Cc1ccc2c(c1)C(c1ccccc1)NCC(=O)N2 (centres unmarked),5.52
13,Cc1ccc(S(=O)(=O)c2nc(NCCN(C)C)sc2Cl)cc1,-42.2
14,CN(C)CCN(C(=O)c1cccc(N2C(=O)CCC2=O)c1)c1nc2ccc(Br)cc2s1.Cl,0.625
15,Cc1cccc(Nc2nnc(SCC(=O)Nc3cccc(S(=O)(=O)N4CCCCC4)c3)s2)c1,4.56
16,O=C(NCCCN1CCCC1=O)C(=O)NCC1OCCN1S(=O)(=O)c1ccc(Cl)cc1 (centres unmarked),10.3
17,Cc1ccc2c(C)nc(SC(C(=O)c3ccccc3)c3ccccc3)nc2c1 (centres unmarked),-4.75
18,Cc1cc(C)nc(N2CCC(C(=O)NNC(=O)c3ccc(Cl)cc3)CC2)n1,-4.31
19,Nc1ncnc(Oc2ccccc2F)c1[N+](=O)[O-],13.6
20,COc1cccc(OC)c1NC(=O)Cn1nc(C)c2ccccc2c1=O,9.2
21,COc1cccc(C2N(c3cccc(Cl)c3)C(=O)C3CCCN32)c1OC (centres unmarked),4.81
22,Cc1cccc(NC(=O)c2cnc3sccn3c2=O)c1,10.7

row,SMILES,"hERG current change (%, negative = inhibition) at 1uM [%]"
1,N/C(Cc1cccc2ccccc12)=N\OC(=O)COc1ccccc1,9.21
2,COc1ccccc1C(=O)Nc1ccnn1C1CCN(CCCc2ccccc2)CC1,-88.1
3,Cc1ccc(O)c(NC(=O)CN(C)S(=O)(=O)c2ccc(Cl)cc2)c1,-4.16
4,O=C(Nc1cccc(-c2cccc(F)c2)c1)C1CCN(Cc2ccco2)CC1,-6.98
5,Cc1cc(O)c(/C=N/Nc2ccccc2)c(=O)o1,13.5
6,CC(C)(C)c1ccc(-c2nnc(SCC(=O)Nc3sc4c(c3C#N)CCCC4)o2)cc1,14.5
7,O=C(CCN1C(=O)c2ccccc2C1=O)NC(=S)Nc1cccc(Cl)c1,9.01
8,CC(C)CNC(=O)NC1(C(F)(F)F)Oc2ccccc2O1,6.18
9,CCN1C(=O)[C@@H]2[C@@H](c3ccc(-c4ccc5c(c4)OCO5)cc3)N3CCCC[C@@]3(C(=O)OC)[C@@H]2C1=O.O=C(O)C(F)(F)F,17.8
10,CCCCCCOC(=O)c1ccc(NC(=O)c2cc(OC)c(OC)c(OC)c2Br)cc1,8.55
11,c1ccc2c(c1)-c1cccc3cccc-2c13,21.5
12,CCOC(=O)Cc1csc(NC(=O)CSc2nnc(C(C)C)n2C)n1,17.6
13,CN1C(=O)/C(=C\c2cc(N=Nc3ccccc3)ccc2O)SC1=S,5.06
14,CSc1ccc(CN2CCN(Cc3ccccc3Cl)CC2)cc1,1.91
15,Br.CCOc1ccc2c(c1)nc(SCC(=O)c1cccs1)n2C,0.0497
16,CNc1nccc(-c2ccc(Cl)cc2)c1C#N,16.7
17,CCCCCC(=O)NNC(=O)c1c(O)c2ccccc2n(CC)c1=O,8.92
18,O=C(OCn1nnc2ccccc2c1=O)c1cccc(S(=O)(=O)N2CCOCC2)c1,12.9
19,COC(=O)N(NC(=O)C(O)(CCC(C)C)CCC(C)C)c1ccccc1,16.5
20,Cc1nc2ncnn2c(C)c1Cc1cccc(C(F)(F)F)c1,4.45
21,O=C(/C=C/Nc1ccc(Oc2ccccc2Cl)cc1)c1ccco1,2.3
22,CC1(C(=O)N(c2ccccc2)C(C(=O)NC2CCCC2)c2ccccn2)CC(=O)N=C2C=CC=CN21 (centres unmarked),11.7
